# Measured values: PubChem BioAssay AID1745853 (National Center for Advancing Translational Sciences (NCATS), 2022)
# The other results are listed elsewhere or left out. Further columns of the screen follow, without active or inactive calls. Peptide text beside a SMILES is read from it.
# How the values were obtained:
# Assay in all cases: Primary Screen for Target Class Profiling of Small Molecule Inhibitors of Methyltransferases
# [1] = target: Glycine N-methyltransferase (Homo sapiens) (UniProt Q14749); conditions: purified enzyme, MTase-Glo SAH luminescence; measured here: GNMT inhibition; at 40 µM; stronger effect = lower value
# Outline: (§1)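 Each enzyme was assayed with SAM and its substrate. SAH formation detected by MTase-Glo luminescence; single-point 40 uM screen[…].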
# [2] = target: Guanidinoacetate N-methyltransferase (Homo sapiens) (UniProt Q14353); conditions: purified enzyme, MTase-Glo SAH luminescence; measured here: GAMT inhibition; at 40 µM; stronger effect = lower value
# Outline: as §1
# [3] = target: Histamine N-methyltransferase (Homo sapiens) (UniProt P50135); conditions: purified enzyme, MTase-Glo SAH luminescence; measured here: HNMT inhibition; at 40 µM; stronger effect = lower value
# Outline: as §1
# [4] = target: Nicotinamide N-methyltransferase (Homo sapiens) (UniProt P40261); conditions: purified enzyme, MTase-Glo SAH luminescence; measured here: NNMT inhibition; at 40 µM; stronger effect = lower value
# Outline: as §1
# [5] = target: Phenylethanolamine N-methyltransferase (Homo sapiens) (UniProt P11086); conditions: purified enzyme, MTase-Glo SAH luminescence; measured here: PNMT inhibition; at 40 µM; stronger effect = lower value
# Outline: as §1
# % is scaled to controls: 0 for no effect and ±100 for the full control effect.
SMILES,"activity change, negative = inhibition [1]","activity change, negative = inhibition [2]","activity change, negative = inhibition [3]","activity change, negative = inhibition [4]","activity change, negative = inhibition [5]"
COc1cccc(NC(=O)Cn2c(=O)oc3cc(S(=O)(=O)N4CCC(C)CC4)ccc32)c1,-6.56%,-0.453%,-8.17%,-14.6%,-27.6%
C[C@@H]1O[C@@H](O[C@H]2[C@H](OC(=O)[C@]34CCC(C)(C)C[C@H]3C3=CCC5[C@@]6(C)CC[C@H](O[C@@H]7O[C@H](CO[C@@H]8OC[C@H](O)[C@H](O)[C@H]8O[C@@H]8OC[C@@H](O)[C@H](O)[C@H]8O)[C@@H](O)[C@H](O)[C@H]7O)C(C)(C)C6CC[C@@]5(C)[C@]3(C)C[C@H]4O)O[C@H](CO)[C@@H](O)[C@@H]2O)[C@H](O[C@@H]2O[C@H](CO)[C@@H](O)[C@H](O)[C@H]2O)[C@H](O)[C@H]1O[C@@H]1OC[C@@H](O)[C@H](O[C@@H]2OC[C@@H](O)[C@H](O)[C@H]2O)[C@H]1O (stereo not given in full),3.67%,9.81%,6.75%,-1.42%,3.75%
CC1(C(=O)NC2CCCCCCC2)Cc2ccccc2C(=O)N1CCN1CCOCC1 (stereo not given),1.77%,0%,10.9%,17.3%,4.58%
O=C(Nc1ccc2c(c1)CN(CCc1ccc(F)cc1)C(=O)CO2)c1c(F)cccc1F,-4.87%,-5.98%,-11.6%,-4.35%,2.99%
Cc1ccc(S(=O)(=O)c2nnn3c2nc(N2CCOCC2)c2ccccc23)cc1,-14.1%,4.58%,1.26%,-4.13%,-8.16%
Cc1cccc(C(=O)N2CCOC(CCCc3ccccc3)C2)n1 (stereo not given),-0.527%,-2.55%,-1.35%,-2.7%,0.468%
O=C(CCc1ccccc1)N1CCC(Cc2nncn2-c2ccccc2)C1 (stereo not given),-5.65%,-3.03%,-0.833%,-7.51%,10%
C=CC1C(OC2OC(CO)C(O)C(O)C2O)OC=C2C(=O)N3C(C(=O)O)Cc4c([nH]c5ccccc45)C3CC21 (stereo not given),-0.206%,-0.824%,5.85%,-10.8%,-3.68%
CN(CCNC(=O)C1CCCCC(=O)N1Cc1ccccc1)C1CCCCC1 (stereo not given),0.059%,1.56%,-1.61%,-3.6%,10.6%
CCc1cc(=O)n(CC(=O)NCCc2ccc(Cl)cc2)c(N2CCOCC2)n1,0.828%,1.84%,0.302%,-6.93%,0.559%
COc1ccccc1CNC(=O)c1cc2n(n1)CC(C)(C(=O)NCCC(C)C)N(C)C2=O (stereo not given),5.74%,0%,11.2%,10.4%,6.58%
CCC1Oc2ccc(NS(=O)(=O)c3ccc(Cl)cc3)cc2CN(Cc2ccc(F)cc2)C1=O (stereo not given),-15.1%,-8.33%,-2.96%,-11.5%,-50.5%
CCNc1ncnc2sc3c(c12)CCN(C(=O)COC)C3,-12%,-7.65%,-2.52%,-24.8%,-24.3%
CCc1csc(CNC(=O)c2ccc(N(C)Cc3cnn(C)c3)nc2)n1,-3.99%,-0.105%,0.697%,-5.02%,-19.1%
CC[C@H]1CN(C(C)=O)CC[C@H]1CC(=O)Nc1ccccc1,-1.42%,-0.549%,-0.21%,-0.281%,-0.17%
O=C([C@@H]1C[C@H](F)CN1S(=O)(=O)Cc1ccccc1F)N1CCc2ccccc2C1,-5.37%,0.05%,2.67%,-2.4%,-4.32%
COc1ccc(-c2cc(-c3ccncc3)cn3cncc23)cc1,-48.9%,-10.1%,-27.6%,-43.7%,-33.8%
CC[C@@H]1C[C@]1(NC(=O)[C@@H]1C[C@@H]2CN1C(=O)[C@H](C(C)(C)C)NC(=O)OCC(C)(C)CCCCc1cccc3c1CN(C3)C(=O)O2)C(=O)NS(=O)(=O)C1CC1,-1.79%,24.1%,11.7%,2.99%,12.5%
CC(C)Cn1c(=O)c2ccc(C(=O)NC3CCCCC3)cc2n2c(SCC(=O)NC(C)C)nnc12,8.48%,1.28%,11.3%,2.41%,5.03%
Cc1c(Cl)cccc1NC(=O)N1Cc2c(sc3c2CCCC3)-n2cccc2C1C(C)C (stereo not given),-3.79%,-4.34%,0.007%,-8.43%,-1.68%
O=C(Nc1ccccc1-c1cn2c(CN3CCNCC3)csc2n1)c1ccc2ccccc2n1,-18%,-6.76%,-29.6%,-20.6%,-22.2%
CCOC(=O)c1cc2n(n1)CC(C)(C(=O)NCCCOC)N(c1ccc(OCC)cc1)C2=O (stereo not given),4.98%,2.23%,8.07%,3.52%,3.54%
CCOC(=O)c1cc2n(n1)CC(C)(C(=O)NC1CCCCCC1)N(c1cccc(F)c1)C2=O (stereo not given),4.41%,4.63%,-5.37%,1.18%,2.25%
NC(=O)NCC(=O)N1CCc2cc(S(=O)(=O)NCc3cccs3)ccc2C1,-8.59%,-13.6%,-3.01%,-11.3%,-7.72%
O=C(NC[C@H]1OC[C@@H](NCc2cccnc2)[C@@H]1O)N1CCOCC1,2.53%,0.755%,2.75%,-2.17%,1.22%
CN(Cc1ccc(OC(F)(F)F)cc1)Cc1cccc(C(F)(F)F)c1,-1.06%,-0.792%,0.777%,-3.7%,-2%
C=C(C)[C@@H]1CC[C@]2(CO)CC[C@]3(C)[C@H](CC[C@@H]4[C@@]5(C)CC[C@H](O)C(C)(C)[C@@H]5CC[C@]43C)[C@@H]12,6.91%,3.44%,11.3%,-12.1%,3.13%
COc1ccccc1CN1C(=O)c2cc3oc(C)cc3n2CC1(C)C(=O)NC1CCCCC1 (stereo not given),0.903%,0%,-2.33%,-0.514%,-2.44%

SMILES,"activity change, negative = inhibition [1]","activity change, negative = inhibition [2]","activity change, negative = inhibition [3]","activity change, negative = inhibition [4]","activity change, negative = inhibition [5]"
CCCN(CCC)CCc1cccc2c1CC(=O)N2,-5.63%,0.672%,-23.5%,-12.2%,-7.39%
CCC(C(=O)NC)n1ccc2cc(S(=O)(=O)N3CCCCC3)ccc21 (stereo not given),-2.23%,4.97%,-1.14%,3.66%,2.12%
N=C(N)c1ccc(N)cc1,-7.13%,5.04%,-17.2%,-14.7%,5.36%
C=CC1(C)C=C2C(O)CC3C(C)(C(=O)O)CCCC3(C)C2CC1 (stereo not given),-5.91%,-5.9%,-0.113%,-17.8%,-3.35%
Cc1cc2c(cc3n2CC(C)(C(=O)NC2CCCCCCC2)N(C2CCCCC2)C3=O)o1 (stereo not given),0.648%,-0.931%,6.79%,1.73%,2.32%
CCCN1C(=O)c2c(C(=O)Nc3cc(C)ccc3C)ncn2CC1(C)C(=O)NCc1ccc(OC)cc1 (stereo not given),-2.79%,0%,0.451%,6.59%,5.38%
CCC(C)NC(=O)c1ccc2c(=O)n(C(C)C)c3nn(CC(=O)Nc4ccc(C)cc4C)c(=O)n3c2c1 (stereo not given),4.52%,0%,4.47%,-2.68%,2.88%
CCC1c2ccc(C)n2CCN1C(=O)Nc1cc(OC)cc(OC)c1 (stereo not given),-11.6%,3.63%,-12.9%,-6.93%,-0.221%
CCOCCCNC(=O)c1cc2n(n1)CC(C)(C(=O)NC1CCCC1)N(C)C2=O (stereo not given),0.394%,0.604%,-1.89%,0.275%,0.011%
C[C@@H](O)[C@H](N)C(=O)N1CCC[C@H]1C(=O)N1CCC[C@H]1C(=O)N[C@H](C(N)=O)[C@@H](C)O (H-TPPT-NH2),1.37%,-1.19%,16%,-6.5%,6.11%
COc1ccc(S(=O)(=O)N2CCC(OCCOCc3ccccc3)CC2)cc1,3.87%,0%,14.8%,4.65%,7.99%
COc1cccc(CN2C(=O)c3cc(-c4cccs4)nn3CC2(C)C(=O)NC2CCCCC2)c1 (stereo not given),-7.75%,3.99%,-2.52%,-1.68%,-4.27%
CCn1nc(CNC(=O)Cc2cccc(F)c2)c2ccccc21,3.61%,0.99%,-1.58%,0.508%,1.46%
Cc1ccc(C)c(N2C(=O)c3cc4sccc4n3CC2(C)C(=O)NC2CCCCCCC2)c1 (stereo not given),0.461%,4.4%,3.84%,8.13%,0.432%
O=C(O)C[C@@H]1CCN(C(=O)Nc2ccc(C(F)(F)F)cc2)C[C@@H]1CCN1C[C@@H]2C[C@H](C1)c1cccc(=O)n1C2,-2.62%,0.959%,-0.725%,5.97%,-0.153%
Cc1cccc2c1O[C@H]1[C@H](CO)CN([S+](=O)([O-])c3cccs3)[C@@H]21,-14%,0.085%,1.51%,-4.29%,0.142%
COc1ccc2nc(-c3cc(OC)c(OC)c(OC)c3)cc(C(=O)NCC(=O)Nc3ccc(C(C)=O)cc3)c2c1,-6.74%,-4.1%,-9.69%,-15%,-10%
CN(C(=O)CC(c1ccccc1)c1ccc(Cl)cc1)C1CCOCC1 (stereo not given),-0.519%,-0.307%,0.342%,-0.467%,0.05%
CN1CCC(Nc2nc(Nc3ccc(Oc4ccccc4)cc3)c3c(=O)[nH]cc(Br)c3n2)CC1,-4.72%,-4.36%,-49.6%,-15.3%,-17.1%
Cc1ccc(CN2C(=O)c3nc4ccccc4n3CC2(C)C(=O)NC2CCCCCC2)cc1 (stereo not given),-5.51%,1.54%,0.518%,-7.46%,-2.52%
CN1C(=O)c2cc3ccccc3n2CC1(C)C(=O)NCC(=O)NCc1ccc(Cl)cc1 (stereo not given),1.99%,1.7%,13.8%,2.05%,6.73%
CCC(C)NC(=O)Cn1nc2n(CC(C)C)c(=O)c3ccc(C(=O)NC(C)C)cc3n2c1=O (stereo not given),0.607%,-0.122%,0.679%,-7.8%,-4.89%
NC(=O)[C@@H](Cc1c[nH]c2ccccc12)NC(=O)[C@@H]1C[C@@H](NS(=O)(=O)c2cccs2)CCN1C(=O)[C@@H](O)[C@H](O)C(=O)O,-4.96%,-7.49%,-2.39%,-12%,-17.8%
O=C(NCCc1nccs1)c1cn(CCN2CCNCC2)nn1,-3.76%,3.28%,-5.67%,1.01%,12%
CC1CCC(NC(=O)C2(C)Cn3c(ccc3-c3ccco3)C(=O)N2Cc2ccccc2F)CC1 (stereo not given),-5.55%,3.67%,-2.3%,-15.6%,-2.13%
COc1cccc(COC2CN(C(=O)CCn3nccc3C)CC(=O)N(Cc3ccccn3)C2)c1 (stereo not given),-4.53%,-13.7%,-2.66%,-10.8%,-2.44%
Cc1ccccc1CSc1nnc2n(CC(C)C)c(=O)c3ccccc3n12,-5.72%,3.01%,7.57%,-14.4%,5.71%
